{
  "source": "paper PMC6919601",
  "about": "“Identification of Plasmodium dipeptidyl aminopeptidase allosteric inhibitors by high throughput screening” (PLoS ONE, 2019)",
  "note": "The campaign covered roughly 110,000 compounds. About 230 (0.21%) showed an effect of 50% or more. Some of the results follow.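 Also: 30 min substrate incubation versus DMSO and 10 µM JCP410 controls.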",
  "data": [
    {"target": "DPAP1 (Plasmodium falciparum, UniProt Q8IIJ9)", "sequence (Q8IIJ9 whole entry, looked up)": "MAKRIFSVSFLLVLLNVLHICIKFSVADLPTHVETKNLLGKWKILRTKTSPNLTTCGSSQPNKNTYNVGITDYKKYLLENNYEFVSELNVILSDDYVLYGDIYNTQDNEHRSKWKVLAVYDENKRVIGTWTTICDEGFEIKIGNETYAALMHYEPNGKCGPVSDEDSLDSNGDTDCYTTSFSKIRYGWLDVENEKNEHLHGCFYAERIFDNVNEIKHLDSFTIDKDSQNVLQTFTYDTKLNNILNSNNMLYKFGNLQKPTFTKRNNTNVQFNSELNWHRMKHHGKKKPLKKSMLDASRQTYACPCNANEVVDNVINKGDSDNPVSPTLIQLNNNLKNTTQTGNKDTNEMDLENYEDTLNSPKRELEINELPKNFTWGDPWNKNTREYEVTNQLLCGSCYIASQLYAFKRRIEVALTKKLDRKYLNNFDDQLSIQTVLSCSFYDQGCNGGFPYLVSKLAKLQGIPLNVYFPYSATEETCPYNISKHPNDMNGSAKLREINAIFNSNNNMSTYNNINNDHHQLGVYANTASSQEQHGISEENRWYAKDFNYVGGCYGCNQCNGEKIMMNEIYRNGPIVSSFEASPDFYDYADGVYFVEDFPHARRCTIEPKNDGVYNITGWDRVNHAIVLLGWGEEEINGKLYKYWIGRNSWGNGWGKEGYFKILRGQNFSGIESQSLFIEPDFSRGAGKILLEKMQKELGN", "assay": "primary screen, percent inhibition; read by cleavage of a fluorogenic dipeptide substrate; higher = more effect of the substance", "design": "species or system P. falciparum D10 trophozoite lysates; single well", "units": {"% Inhibition @ 10 uM": "%"}, "values": [
      {"smiles": "CCOc1ccc(-c2nonc2NC(=O)c2cccc(C)c2)cc1OCC", "% Inhibition @ 10 uM": -3.24},
      {"smiles": "Oc1ccc(Nc2nc(-c3cccnc3)cs2)cc1", "% Inhibition @ 10 uM": 4.26},
      {"smiles": "CCN(CC)CCCCOc1ccccc1F", "% Inhibition @ 10 uM": -5.26},
      {"smiles": "CC1(C)CC(=O)C2=C(C1)NC(=O)C(C#N)C2c1ccccc1", "note": "(stereo not shown)", "% Inhibition @ 10 uM": -1.37},
      {"smiles": "CC1=C(C(=O)Nc2ccccc2C)C(c2ccc(Cl)cc2)NC(S)=N1", "note": "(stereo not shown)", "% Inhibition @ 10 uM": 1.27},
      {"smiles": "COC(=O)c1ccccc1-n1cc2c(c1-c1ccc(Cl)cc1)c(=O)n(C)c(=O)n2C", "% Inhibition @ 10 uM": 2.02},
      {"smiles": "CCOc1cccc(NC(=O)C2CC(=O)N(c3ccc(C)cc3)C2)c1", "note": "(stereo not shown)", "% Inhibition @ 10 uM": 3.56},
      {"smiles": "CC(=O)c1ccc(N2CCN(Cc3ccoc3)CC2)cc1", "% Inhibition @ 10 uM": -1.41},
      {"smiles": "CCCCNc1nc(Oc2ccc(O)nn2)nc(N(CC)CC)n1", "% Inhibition @ 10 uM": -7.24},
      {"smiles": "Cc1ccc(C2=C/C(=C\\c3cccnc3)C(=O)O2)cc1", "% Inhibition @ 10 uM": -5.01},
      {"smiles": "COc1cc(OC)cc(C2C(C#N)=C(N)Oc3c2c(C)nn3-c2ccccc2)c1", "note": "(stereo not shown)", "% Inhibition @ 10 uM": 2.38},
      {"smiles": "O=C(Nc1ccccc1)Nc1cc[n+]([O-])c(S(=O)(=O)c2ccccc2)c1", "% Inhibition @ 10 uM": 1.82},
      {"smiles": "Cc1ccc(NC(=O)COc2ccc(Cl)cc2Cl)cc1F", "% Inhibition @ 10 uM": -2.03},
      {"smiles": "NC(=O)CSc1nc(N2CCOCC2)nc(N2CCOCC2)n1", "% Inhibition @ 10 uM": -6.02},
      {"smiles": "Cc1ccc(S(=O)(=O)N2CCN(CCOc3ccc(Cl)cc3)CC2)cc1", "% Inhibition @ 10 uM": -3.71},
      {"smiles": "COc1cc(C2C3=C(O)CCCC3=NC(C)=C2C(=O)N2CCCCC2)cc(Cl)c1O", "note": "(stereo not shown)", "% Inhibition @ 10 uM": 0.219},
      {"smiles": "CCOC(=O)C1=CN(C(C)C)C=C(C(=O)OCC)C1c1cccc(O)c1", "% Inhibition @ 10 uM": -1.48},
      {"smiles": "CC(C)(C)OC(=O)NC1(C(=O)NC2(C#N)CC2)CCCCC1", "% Inhibition @ 10 uM": -1.41},
      {"smiles": "Cc1ccc(-c2coc3c2c(C)cc2oc(=O)c(CC(=O)O)c(C)c23)cc1", "% Inhibition @ 10 uM": 2.21},
      {"smiles": "FC(F)(F)C1(C(F)(F)F)N=C(COc2ccccc2)NC(c2ccccc2)=N1", "% Inhibition @ 10 uM": -3.53},
      {"smiles": "Cc1nn(C2CCCCC2)c(N)c1C#N", "% Inhibition @ 10 uM": 2.16},
      {"smiles": "CC1CCCCC1NC(=O)c1nnc(Cc2ccc(Cl)cc2)o1", "note": "(stereo not shown)", "% Inhibition @ 10 uM": -0.999},
      {"smiles": "CCOC(=O)C1CCN(C2CCN(C)CC2)CC1", "% Inhibition @ 10 uM": 0.472},
      {"smiles": "O=C(COc1ccc2ccccc2c1)NCc1ccc(-n2cccc2)cc1", "% Inhibition @ 10 uM": -4.04},
      {"smiles": "C/N=C1/S/C(=C\\c2cc(C)n(-c3ccccc3F)c2C)C(=O)N1C", "% Inhibition @ 10 uM": -3.04},
      {"smiles": "O=C(C1CC(c2ccc(F)cc2)=NO1)N1CCN(Cc2ccccc2)CC1", "note": "(stereo not shown)", "% Inhibition @ 10 uM": -5.79},
      {"smiles": "O=C(Cc1ccc2ccccc2n1)C(F)(F)F", "% Inhibition @ 10 uM": 0.0345},
      {"smiles": "Cc1cccc(OCC(=O)Nc2sc3c(c2C(N)=O)CCCC3)c1", "% Inhibition @ 10 uM": 2.44},
      {"smiles": "Cc1c(-c2ccccc2)nc2ccccc2c1C(=O)O", "% Inhibition @ 10 uM": -0.687},
      {"smiles": "CCn1cc(C2=NOC(C(=O)Nc3cccnc3Cl)C2)c(C)n1", "note": "(stereo not shown)", "% Inhibition @ 10 uM": -1.37},
      {"smiles": "O=C(O)c1ccc(S(=O)(=O)c2ccc3c(c2)C(=O)N(Cc2cccnc2)C3=O)cc1", "% Inhibition @ 10 uM": -3.09},
      {"smiles": "COc1ccc(C(=O)NCC2OCCc3ccccc32)c(OC)c1", "note": "(stereo not shown)", "% Inhibition @ 10 uM": -10.9},
      {"smiles": "O=C1Nc2ccccc2C12OCCO2", "% Inhibition @ 10 uM": -2.51},
      {"smiles": "N#Cc1cccnc1Cl", "% Inhibition @ 10 uM": 2.34},
      {"smiles": "COCCCNC1CCc2ccccc2C1", "note": "(stereo not shown)", "% Inhibition @ 10 uM": 2.22},
      {"smiles": "CC(Oc1ccc(C(C)(C)C)cc1)C(=O)N1CCCCCC1", "note": "(stereo not shown)", "% Inhibition @ 10 uM": -6.02},
      {"smiles": "Cc1ccc(NC(CC(=O)C2CC2)c2ccccc2)cc1", "note": "(stereo not shown)", "% Inhibition @ 10 uM": 4.6},
      {"smiles": "NC(=O)Cn1c(=O)n(Cc2cccs2)c(=O)c2cccnc21", "% Inhibition @ 10 uM": -1.66},
      {"smiles": "CCc1nnc(NC(=O)c2sc3nc(-c4cccs4)cc(C(F)(F)F)c3c2N)s1", "% Inhibition @ 10 uM": 0.487},
      {"smiles": "CCc1nn(C(C)C(=O)N2CCCCCC2)c(=O)c2cc3occc3n12", "note": "(stereo not shown)", "% Inhibition @ 10 uM": -3.79},
      {"smiles": "CCN(CC)CC#CC(OC(C)=O)c1ccccc1", "note": "(stereo not shown)", "% Inhibition @ 10 uM": -1.98},
      {"smiles": "COCCNC(=O)C1CC(=O)N(C2CCCCC2)C1", "note": "(stereo not shown)", "% Inhibition @ 10 uM": -3.58},
      {"smiles": "CCn1c(=N)c(C#N)cc2c(=O)n3ccccc3nc21", "% Inhibition @ 10 uM": 1.97},
      {"smiles": "COc1cccc(NC(=O)COc2ccccc2OC)c1", "% Inhibition @ 10 uM": -4.97},
      {"smiles": "Cc1cc(C)c2c(=O)n(CC(=O)NCCc3ccc(Cl)cc3)sc2n1", "% Inhibition @ 10 uM": 15.6},
      {"smiles": "Cc1nc(Oc2ccc(F)cc2)c(C(=O)O)c(C)c1Cl", "% Inhibition @ 10 uM": -4.35},
      {"smiles": "NC(=O)c1ccc(NC(=O)c2ccccc2F)cc1", "% Inhibition @ 10 uM": -6.91},
      {"smiles": "Cc1cc(NC(=O)CSc2nnc(Cc3cccn3C)n2C)no1", "% Inhibition @ 10 uM": 3.33},
      {"smiles": "CC(C)C[C@H](NC(=O)c1ccc(NC(=N)N)cc1)C(=O)N[C@@H](CCCCNC(=O)OCc1ccccc1)C(=O)O", "% Inhibition @ 10 uM": -1.41},
      {"smiles": "COc1ccc2nc(O)c(CN(C)C(=O)c3cccc(Cl)c3)cc2c1", "% Inhibition @ 10 uM": -2.4},
      {"smiles": "Cc1ccc(C(=O)N(C)Cc2ccccc2)cc1[N+](=O)[O-]", "% Inhibition @ 10 uM": -5.11},
      {"smiles": "COCCNc1nc2c(c(=O)n(C)c(=O)n2C)n1Cc1ccccc1C", "% Inhibition @ 10 uM": 3.6}
    ]}
  ]
}
